{
  "source": "the supplement of paper PMC12458215",
  "note": "± gives the uncertainty stated by the source.",
  "data": [
    {"system": "HEK293T", "test": "plasma membrane surface immunostaining intensity (anti-HA, deep receptor scanning) (arbitrary fluorescence units); higher = higher plasma membrane expression", "settings": "GPCR class: A", "values": [
      {"sequence": "MIVFLVFKHLFSLRLITMFFLLHFIVLINVKDFALTQGSMITPSCQKGYFPCGNLTKCLPRAFHCDGKDDCGNGADEENCGDTSGWATIFGTVHGNANSVALTQECFLKQYPQCCDCKETELECVNGDLKSVPMISNNVTLLSLKKNKIHSLPDKVFIKYTKLKKIFLQHNCIRHISRKAFFGLCNLQILYLNHNCITTLRPGIFKDLHQLTWLILDDNPITRISQRLFTGLNSLFFLSMVNNYLEALPKQMCAQMPQLNWVDLEGNRIKYLTNSTFLSCDSLTVLFLPRNQIGFVPEKTFSSLKNLGELDLSSNTITELSPHLFKDLKLLQKLNLSSNPLMYLHKNQFESLKQLQSLDLERIEIPNINTRMFQPMKNLSHIYFKNFRYCSYAPHVRICMPLTDGISSFEDLLANNILRIFVWVIAFITCFGNLFVIGMRSFIKAENTTHAMSIKILCCADCLMGVYLFFVGIFDIKYRGQYQKYALLWMESVQCRLMGFLAMLSTEVSVLLLTYLTLEKFLVIVFPFSNIRPGKRQTSVILICIWMAGFLIAVIPFWNKDYFGNFYGKNGVCFPLYYDQTEDIGSKGYSLGIFLGVNLLAFLIIVFSYITMFCSIQKTALQTTEVRNCFGREVAVANRFFFIVFSDAICWIPVFVVKILSLFRVEIPDTMTSWIVIFFLPVNSALNPILYTLTTNFFKDKLKQLLHKHQRKSIFKIKKKSLSTSIVWIEDSSSLKLGVLNKITLGDSIMKPVS [RXFP2]", "plasma membrane surface immunostaining intensity": "194 ± 8.5"},
      {"sequence": "MKHIINSYENINNTARNNSDCPRVVLPEEIFFTISIVGVLENLIVLLAVFKNKNLQAPMYFFICSLAISDMLGSLYKILENILIILRNMGYLKPRGSFETTADDIIDSLFVLSLLGSIFSLSVIAADRYITIFHALRYHSIVTMRRTVVVLTVIWTFCTGTGITMVIFSHHVPTVITFTSLFPLMLVFILCLYVHMFLLARSHTRKISTLPRANMKGAITLTILLGVFIFCWAPFVLHVLLMTFCPSNPYCACYMSLFQVNGMLIMCNAVIDPFIYAFRSPELRDAFKKMIFCSRYW [MC2R]", "plasma membrane surface immunostaining intensity": "683 ± 200"},
      {"sequence": "MKQRFSALQLLKLLLLLQPPLPRALREALCPEPCNCVPDGALRCPGPTAGLTRLSLAYLPVKVIPSQAFRGLNEVIKIEISQIDSLERIEANAFDNLLNLSEILIQNTKNLRYIEPGAFINLPRLKYLSICNTGIRKFPDVTKVFSSESNFILEICDNLHITTIPGNAFQGMNNESVTLKLYGNGFEEVQSHAFNGTTLTSLELKENVHLEKMHNGAFRGATGPKTLDISSTKLQALPSYGLESIQRLIATSSYSLKKLPSRETFVNLLEATLTYPSHCCAFRNLPTKEQNFSHSISENFSKQCESTVRKVNNKTLYSSMLAESELSGWDYEYGFCLPKTPRCAPEPDAFNPCEDIMGYDFLRVLIWLINILAIMGNMTVLFVLLTSRYKLTVPRFLMCNLSFADFCMGLYLLLIASVDSQTKGQYYNHAIDWQTGSGCSTAGFFTVFASELSVYTLTVITLERWHTITYAIHLDQKLRLRHAILIMLGGWLFSSLIAMLPLVGVSNYMKVSICFPMDVETTLSQVYILTILILNVVAFFIICACYIKIYFAVRNPELMATNKDTKIAKKMAILIFTDFTCMAPISFFAISAAFKVPLITVTNSKVLLVLFYPINSCANPFLYAIFTKTFQRDFFLLLSKFGCCKRRAELYRRKDFSAYTSNCKNGFTGSNKPSQSTLKLSTLHCQGTALLDKTRYTEC [LHCGR]", "plasma membrane surface immunostaining intensity": "5790 ± 79"},
      {"sequence": "MLANSSSTNSSVLPCPDYRPTHRLHLVVYSLVLAAGLPLNALALWVFLRALRVHSVVSVYMCNLAASDLLFTLSLPVRLSYYALHHWPFPDLLCQTTGAIFQMNMYGSCIFLMLINVDRYAAIVHPLRLRHLRRPRVARLLCLGVWALILVFAVPAARVHRPSRCRYRDLEVRLCFESFSDELWKGRLLPLVLLAEALGFLLPLAAVVYSSGRVFWTLARPDATQSQRRRKTVRLLLANLVIFLLCFVPYNSTLAVYGLLRSKLVAASVPARDRVRGVLMVMVLLAGANCVLDPLVYYFSAEGFRNTLRGLGTPHRARTSATNGTRAALAQSERSAVTTDATRPDAASQGLLRPSDSHSLSSFTQCPQDSAL [LPAR5]", "plasma membrane surface immunostaining intensity": "1080 ± 34"},
      {"sequence": "MLPPGSNGTAYPGQFALYQQLAQGNAVGGSAGAPPLGPSQVVTACLLTLLIIWTLLGNVLVCAAIVRSRHLRANMTNVFIVSLAVSDLFVALLVMPWKAVAEVAGYWPFGAFCDVWVAFDIMCSTASILNLCVISVDRYWAISRPFRYKRKMTQRMALVMVGLAWTLSILISFIPVQLNWHRDQAASWGGLDLPNNLANWTPWEEDFWEPDVNAENCDSSLNRTYAISSSLISFYIPVAIMIVTYTRIYRIAQVQIRRISSLERAAEHAQSCRSSAACAPDTSLRASIKKETKVLKTLSVIMGVFVCCWLPFFILNCMVPFCSGHPEGPPAGFPCVSETTFDVFVWFGWANSSLNPVIYAFNADFQKVFAQLLGCSHFCSRTPVETVNISNELISYNQDIVFHKEIAAAYIHMMPNAVTPGNREVDNDEEEGPFDRMFQIYQTSPDGDPVAESVWELDCEGEISLDKITPFTPNGFH [DRD5]", "plasma membrane surface immunostaining intensity": "480 ± 80"},
      {"sequence": "MMDVNSSGRPDLYGHLRSFLLPEVGRGLPDLSPDGGADPVAGSWAPHLLSEVTASPAPTWDAPPDNASGCGEQINYGRVEKVVIGSILTLITLLTIAGNCLVVISVCFVKKLRQPSNYLIVSLALADLSVAVAVMPFVSVTDLIGGKWIFGHFFCNVFIAMDVMCCTASIMTLCVISIDRYLGITRPLTYPVRQNGKCMAKMILSVWLLSASITLPPLFGWAQNVNDDKVCLISQDFGYTIYSTAVAFYIPMSVMLFMYYQIYKAARKSAAKHKFPGFPRVEPDSVIALNGIVKLQKEVEECANLSRLLKHERKNISIFKREQKAATTLGIIVGAFTVCWLPFFLLSTARPFICGTSCSCIPLWVERTFLWLGYANSLINPFIYAFFNRDLRTTYRSLLQCQYRNINRKLSAAGMHEALKLAERPERPEFVLRACTRRVLLRPEKRPPVSVWVLQSPDHHNWLADKMLTTVEKKVMIHD [HTR7]", "plasma membrane surface immunostaining intensity": "586 ± 96"},
      {"sequence": "MMEPREAGQHVGAANGAQEDVAFNLIILSLTEGLGLGGLLGNGAVLWLLSSNVYRNPFAIYLLDVACADLIFLGCHMVAIVPDLLQGRLDFPGFVQTSLATLRFFCYIVGLSLLAAVSVEQCLAALFPAWYSCRRPRHLTTCVCALTWALCLLLHLLLSGACTQFFGEPSRHLCRTLWLVAAVLLALLCCTMCGASLMLLLRVERGPQRPPPRGFPGLILLTVLLFLFCGLPFGIYWLSRNLLWYIPHYFYHFSFLMAAVHCAAKPVVYFCLGSAQGRRLPLRLVLQRALGDEAELGAVRETSRRGLVDIAA [MRGPRE]", "plasma membrane surface immunostaining intensity": "1680 ± 420"},
      {"sequence": "MMWGAGSPLAWLSAGSGNVNVSSVGPAEGPTGPAAPLPSPKAWDVVLCISGTLVSCENALVVAIIVGTPAFRAPMFLLVGSLAVADLLAGLGLVLHFAAVFCIGSAEMSLVLVGVLAMAFTASIGSLLAITVDRYLSLYNALTYYSETTVTRTYVMLALVWGGALGLGLLPVLAWNCLDGLTTCGVVYPLSKNHLVVLAIAFFMVFGIMLQLYAQICRIVCRHAQQIALQRHLLPASHYVATRKGIATLAVVLGAFAACWLPFTVYCLLGDAHSPPLYTYLTLLPATYNSMINPIIYAFRNQDVQKVLWAVCCCCSSSKIPFRSRSPSDV [GPR3]", "plasma membrane surface immunostaining intensity": "400 ± 63"},
      {"sequence": "MNASAASLNDSQVVVVAAEGAAAAATAAGGPDTGEWGPPAAAALGAGGGANGSLELSSQLSAGPPGLLLPAVNPWDVLLCVSGTVIAGENALVVALIASTPALRTPMFVLVGSLATADLLAGCGLILHFVFQYLVPSETVSLLTVGFLVASFAASVSSLLAITVDRYLSLYNALTYYSRRTLLGVHLLLAATWTVSLGLGLLPVLGWNCLAERAACSVVRPLARSHVALLSAAFFMVFGIMLHLYVRICQVVWRHAHQIALQQHCLAPPHLAATRKGVGTLAVVLGTFGASWLPFAIYCVVGSHEDPAVYTYATLLPATYNSMINPIIYAFRNQEIQRALWLLLCGCFQSKVPFRSRSPSEV [GPR6]", "plasma membrane surface immunostaining intensity": "433 ± 43"},
      {"sequence": "MNASCCLPSVQPTLPNGSEHLQAPFFSNQSSSAFCEQVFIKPEVFLSLGIVSLLENILVILAVVRNGNLHSPMYFFLCSLAVADMLVSVSNALETIMIAIVHSDYLTFEDQFIQHMDNIFDSMICISLVASICNLLAIAVDRYVTIFYALRYHSIMTVRKALTLIVAIWVCCGVCGVVFIVYSESKMVIVCLITMFFAMMLLMGTLYVHMFLFARLHVKRIAALPPADGVAPQQHSCMKGAVTITILLGVFIFCWAPFFLHLVLIITCPTNPYCICYTAHFNTYLVLIMCNSVIDPLIYAFRSLELRNTFREILCGCNGMNLG [MC3R]", "plasma membrane surface immunostaining intensity": "6358 ± 31"},
      {"sequence": "MNESRWTEWRILNMSSGIVNVSERHSCPLGFGHYSVVDVCIFETVVIVLLTFLIIAGNLTVIFVFHCAPLLHHYTTSYFIQTMAYADLFVGVSCLVPTLSLLHYSTGVHESLTCQVFGYIISVLKSVSMACLACISVDRYLAITKPLSYNQLVTPCRLRICIILIWIYSCLIFLPSFFGWGKPGYHGDIFEWCATSWLTSAYFTGFIVCLLYAPAAFVVCFTYFHIFKICRQHTKEINDRRARFPSHEVDSSRETGHSPDRRYAMVLFRITSVFYMLWLPYIIYFLLESSRVLDNPTLSFLTTWLAISNSFCNCVIYSLSNSVFRLGLRRLSETMCTSCMCVKDQEAQEPKPRKRANSCSI [GPR52]", "plasma membrane surface immunostaining intensity": "757 ± 170"},
      {"sequence": "MNGTYNTCGSSDLTWPPAIKLGFYAYLGVLLVLGLLLNSLALWVFCCRMQQWTETRIYMTNLAVADLCLLCTLPFVLHSLRDTSDTPLCQLSQGIYLTNRYMSISLVTAIAVDRYVAVRHPLRARGLRSPRQAAAVCAVLWVLVIGSLVARWLLGIQEGGFCFRSTRHNFNSMAFPLLGFYLPLAVVVFCSLKVVTALAQRPPTDVGQAEATRKAARMVWANLLVFVVCFLPLHVGLTVRLAVGWNACALLETIRRALYITSKLSDANCCLDAICYYYMAKEFQEASALAVAPSAKAHKSQDSLCVTLA [GPR35]", "plasma membrane surface immunostaining intensity": "3990 ± 370"},
      {"sequence": "MNGVSEGTRGCSDRQPGVLTRDRSCSRKMNSSGCLSEEVGSLRPLTVVILSASIVVGVLGNGLVLWMTVFRMARTVSTVCFFHLALADFMLSLSLPIAMYYIVSRQWLLGEWACKLYITFVFLSYFASNCLLVFISVDRCISVLYPVWALNHRTVQRASWLAFGVWLLAAALCSAHLKFRTTRKWNGCTHCYLAFNSDNETAQIWIEGVVEGHIIGTIGHFLLGFLGPLAIIGTCAHLIRAKLLREGWVHANRPKRLLLVLVSAFFIFWSPFNVVLLVHLWRRVMLKEIYHPRMLLILQASFALGCVNSSLNPFLYVFVGRDFQEKFFQSLTSALARAFGEEEFLSSCPRGNAPRE [GPR32]", "plasma membrane surface immunostaining intensity": "153 ± 42"},
      {"sequence": "MNITNCTTEASMAIRPKTITEKMLICMTLVVITTLTTLLNLAVIMAIGTTKKLHQPANYLICSLAVTDLLVAVLVMPLSIIYIVMDRWKLGYFLCEVWLSVDMTCCTCSILHLCVIALDRYWAITNAIEYARKRTAKRAALMILTVWTISIFISMPPLFWRSHRRLSPPPSQCTIQHDHVIYTIYSTLGAFYIPLTLILILYYRIYHAAKSLYQKRGSSRHLSNRSTDSQNSFASCKLTQTFCVSDFSTSDPTTEFEKFHASIRIPPFDNDLDHPGERQQISSTRERKAARILGLILGAFILSWLPFFIKELIVGLSIYTVSSEVADFLTWLGYVNSLINPLLYTSFNEDFKLAFKKLIRCREHT [HTR1E]", "plasma membrane surface immunostaining intensity": "6410 ± 86"},
      {"sequence": "MNQTLNSSGTVESALNYSRGSTVHTAYLVLSSLAMFTCLCGMAGNSMVIWLLGFRMHRNPFCIYILNLAAADLLFLFSMASTLSLETQPLVNTTDKVHELMKRLMYFAYTVGLSLLTAISTQRCLSVLFPIWFKCHRPRHLSAWVCGLLWTLCLLMNGLTSSFCSKFLKFNEDRCFRVDMVQAALIMGVLTPVMTLSSLTLFVWVRRSSQQWRRQPTRLFVVVLASVLVFLICSLPLSIYWFVLYWLSLPPEMQVLCFSLSRLSSSVSSSANPVIYFLVGSRRSHRLPTRSLGTVLQQALREEPELEGGETPTVGTNEMGA [MRGPRD]", "plasma membrane surface immunostaining intensity": "1610 ± 380"}
    ]}
  ]
}
